# Laboratory results: PubChem BioAssay AID686978 (National Center for Advancing Translational Sciences (NCATS), 2013)
# The campaign covered roughly 420,000 compounds. About 64,000 (15%) were called active. The inconclusive results got no clear call from the source; some entries with a clear call stand among them for comparison. Calls follow the shape of the dose curve; as a rule, active = well fitted inhibition curve with a large enough effect; inconclusive = small, poorly fitted or top-dose-only effect; inactive = flat fitted curve, though single readings scatter. No potency is given beside an inconclusive call; the fits are too rough.
# Test: qHTS for Inhibitors of human tyrosyl-DNA phosphodiesterase 1 (TDP1): qHTS in cells in absence of CPT; also: nearly all actives have a fitted effect of over 55% in size
# Conditions: DT40 Tdp1-/- hTDP1 cells, no CPT, ATP luminescence, 48 h; activity change, negative = growth inhibition: at 46.2 µM (top of the series) unless noted
# Method in brief: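 Readout: luminescence from CellTiter-Glo after 30 min in the dark at RT. Cells: DT40 Tdp1-/- with stable hTDP1, 400/well. Exposure: compounds alone, ≥48 hr, 37 °C.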
# % is scaled to controls: 0 for no effect and ±100 for the full control effect; potency is read from the fitted curve at half-maximal effect; tags tell the direction and shape of the fitted curve.
Structure (SMILES),Potency,"activity change, negative = growth inhibition"
COc1ccc(NS(=O)(=O)c2ccc3oc(SCC(N)=O)nc3c2)cc1,"inconclusive [inhibitor, single point]",
Cc1cc(Br)ccc1NC(=O)c1cc2c(s1)-c1ccccc1SC2,"inconclusive [inhibitor, single point]",
CCCCCn1c(N2CCC(Cc3ccccc3)CC2)nc2c1c(=O)[nH]c(=O)n2C,"inconclusive [inhibitor, single point]",
COc1ccnc2c1c(=O)n(Cc1cccc(F)c1)c(=O)n2C,,inactive: -26.1%
CS(=O)(=O)N(CC(=O)N1CCN(c2ccccc2)CC1)c1cc(C(F)(F)F)ccc1Cl,,inactive: -26.1%
COc1ccc(C(=O)NCCc2ccc(Cl)cc2)cc1S(=O)(=O)N1CCCCC1C (configuration not stated),"inconclusive [inhibitor, single point]",
Cn1cc(CCC(=O)NC2CC(C)(C)Cc3c2cnn3-c2ccc(F)cc2)cn1 (configuration not stated),,inconclusive: -34.9% [inhibitor]
COc1ccc(NS(=O)(=O)c2nnc(NC(=O)c3ccccc3F)s2)cc1,"inconclusive [inhibitor, single point]",
CCOC(=O)N1CCc2c(sc3c2c(=O)n(-c2ccc(Cl)cc2)c(=O)n3CC(=O)c2ccc(F)cc2)C1,active: 20.6 µM,
COc1cccc(NC(=O)COC(=O)C2CC3CCCC(C2)C3=O)c1 (configuration not stated),,inactive: -21.8%
O=C(c1ccc([N+](=O)[O-])cc1Cl)N1CCN(c2ccccn2)CC1,"inconclusive [inhibitor, single point]",
COc1ccccc1NC(=O)CSc1nc2c(oc3ccccc32)c(=O)n1-c1ccc(C)cc1,active: 8.2 µM,
Cc1ccc(C(=O)Cn2c(C(=O)O)cc3ccccc32)cc1,,inconclusive: -27% [inhibitor]
CC(C)(C)c1ccc(-c2nc(C=O)c3ccccn23)cc1,"inconclusive [inhibitor, single point]",
C=CCNC(=O)C(C#N)c1nc2ccccc2nc1N1CCN(Cc2ccccc2)CC1 (configuration not stated),,inactive: -8.2%
Cc1cccc(NC(=S)NC23CN4CN(CN(C4)C2)C3)c1,"inconclusive [inhibitor, partial curve]",
COCOCCn1cc(CN2CCS(=O)(=O)N(Cc3ccc(-c4cccc(CO)c4)cc3)C(CC(C)C)C2=O)nn1 (configuration not stated),"inconclusive [inhibitor, single point]",
Cc1ccc(NC(=O)Cn2cc(C=O)c3ccccc32)cc1C,"inconclusive [inhibitor, partial curve]",
Cc1ccccc1C(=O)NC(=S)Nc1ccc(S(=O)(=O)N2CCOCC2)cc1,"inconclusive [inhibitor, partial curve, poor fit]",
CCOCC(=O)N1CCC(Cc2ccccc2)CC1,,inactive: -11%
COc1ccccc1N1CCN(CCCCN2C(=O)C3CCCCN3C2=O)CC1 (configuration not stated),"inconclusive [inhibitor, single point]",
Cc1ccc(-c2csc(C3=C(O)CN(NC(=O)c4ccc([N+](=O)[O-])cc4)C3=N)n2)cc1,,inactive: -7.15%
CC(C)Oc1ccc(C(=O)Nc2ccccc2N2CCCC2)cc1,"inconclusive [inhibitor, single point]",
Cc1ccsc1C(=O)N1CCN(S(=O)(=O)c2cccs2)CC1,,inconclusive: -30.2% [inhibitor]

Structure (SMILES),Potency,"activity change, negative = growth inhibition"
COc1cccc(CN2CCCC(C(=O)c3ccc4c(c3)OCO4)C2)c1OC (configuration not stated),"inconclusive [inhibitor, single point]",
O=C(CCCCCN1C(=O)[C@@H]2Cc3ccccc3CN2C1=O)Nc1cccc(F)c1,active: 14.6 µM,
COc1ccc(Cl)cc1NS(=O)(=O)c1cc(-c2cc(C)no2)ccc1C,active: 7.31 µM,
Cc1cc(Br)ccc1NC(=O)CCS(=O)(=O)c1cccc2nonc12,,inconclusive: -17.1% [inhibitor]
CCOc1ccc(CCNS(=O)(=O)c2cc3c(cc2C)NC(=O)CO3)cc1OCC,"inconclusive [inhibitor, single point]",
CCOC(=O)N1CCC(n2c(SCC(=O)N3CCCC3)nc3ccccc3c2=O)CC1,active: 18.4 µM,
Cc1cc(F)cc(-c2cc(C(=O)NCc3ccccc3)[nH]n2)c1,"inconclusive [inhibitor, partial curve]",
COc1ccccc1CCC(=O)Nc1cccc(S(=O)(=O)N2CCCC2)c1,"inconclusive [inhibitor, single point]",
CCNc1ncc2nc(-c3cn(C)c4ccccc34)c(=O)n(Cc3ccc(F)cc3)c2n1,,inactive: -12.5%
CCOC(=O)c1ccc(NC(=O)C2Cc3ccccc3CN2S(=O)(=O)c2ccc(Cl)cc2)cc1 (configuration not stated),active: 16.4 µM,
CCN(CC(=O)N1CCN(Cc2ccccc2)CC1)S(=O)(=O)c1ccc(C)cc1,"inconclusive [inhibitor, single point]",
COc1cccc(/C=N/NC(=S)Nc2cccc(S(=O)(=O)N(C)C)c2)c1,active: 8.2 µM,
COc1ccc(-c2n[nH]c(=S)n2Cc2ccccc2)cc1,"inconclusive [inhibitor, single point]",
Cc1ccc(-c2csc3ncnc(Sc4nnnn4-c4ccccc4)c23)cc1,active: 5.62 µM,
COc1ccc(C2c3[nH]c4ccccc4c3C[C@H]3C(=O)N(C4CCN(Cc5ccccc5)CC4)CC(=O)N23)c(OC)c1 (some centres not stated),active: 14.6 µM,
CCC(=O)N1CCN(c2ccccc2NC(=O)c2cccc(C)c2)CC1,"inconclusive [inhibitor, single point]",
Nc1cc(=O)[nH]c(SCC(=O)Nc2ccccc2Sc2ccc(Cl)cc2)n1,"inconclusive [inhibitor, single point]",
CC(NC(=O)CCC(=O)c1ccccc1)c1ccc(F)cc1 (configuration not stated),,inactive: -27.8%
CCCCON1C(=O)c2cccc3cccc(c23)C1=O,"inconclusive [inhibitor, single point]",
COc1cc(/C=C(\C#N)C(=O)c2c(C)[nH]c3ccccc23)cc(OC)c1OC,"inconclusive [inhibitor, single point]",
Cc1ccc(NC(=O)CSC(C)C(=O)OC(C)C(=O)NC2CCCCC2C)cc1 (configuration not stated),"inconclusive [inhibitor, single point]",
CC1CCN(C(=O)c2ccc(NS(C)(=O)=O)cc2)CC1,,inactive: 2.56%
CC1(C)CC(=O)C2=C(C1)Nc1ccccc1NC2c1cccs1 (configuration not stated),,inactive: -3.04%
Cc1cc(C)c(Cn2c(C)c(CNCCCc3ccccc3)c(C(=O)O)c2C)c(C)c1,active: 23.1 µM,

Structure (SMILES),Potency,"activity change, negative = growth inhibition"
CCCCOCCCNC(=O)C[C@@H]1C[C@@]2(C(=O)OCC)CCCC=C2N(Cc2cccc3ccccc23)C1=O,active: 13 µM,
CC(=O)c1sc2c(c1C)c(=O)n(-c1ccc(Cl)cc1)c(=O)n2Cc1ccc(Cl)cc1,active: 8.2 µM,
Cc1ccc(C)c(N2CCN(C(=O)CN3C(=O)COc4ccc(S(=O)(=O)N5CCCCCC5)cc43)CC2)c1,active: 16.4 µM,
CCCCN(C(=O)c1cc(S(=O)(=O)N2CCOCC2)ccc1F)c1c(N)n(CCCC)c(=O)[nH]c1=O,,inactive: 0.382%
Cc1ccc(C(=O)Nc2ccon2)cc1S(=O)(=O)N1CCCC1,,inactive: -19.6%
CCCNC(=O)C1(C)CCCN(Cc2cc(-c3ccccc3)n(C)n2)C1 (configuration not stated),"inconclusive [inhibitor, single point]",
Cc1cccc(NC(=O)c2cnn(-c3ccccc3)c2-n2cccc2)c1C,"inconclusive [inhibitor, single point]",
COc1ccc(N2CCN(C(=O)c3ccc(S(=O)(=O)NCc4ccco4)cc3)CC2)cc1,,inactive: -21.1%
Cc1ccc(N(C)S(=O)(=O)c2cccc(C(=O)OCC(=O)c3c(N)n(C)c(=O)n(C)c3=O)c2)cc1,active: 18.4 µM,
COc1cc(=O)n2c(c1C(=O)NCc1nonc1C)CCN(C(=O)c1cccc(C)c1C)CC2,,inactive: -22.7%
Cc1nc(N/N=C/c2ccccc2)nc(N(C)c2ccccc2)c1[N+](=O)[O-],,inactive: -10%
COc1ccc(-c2cc(C(=O)Nc3c(C(=O)c4ccc(Cl)cc4)oc4ccccc34)no2)cc1,,inactive: -18.4%
O=C(CCNc1cccc(Cl)c1)c1cccs1,active: 14.6 µM,
COc1ccc(-c2cc(C(F)(F)F)nc(SCC(=O)N3CCOCC3)n2)cc1OC,"inconclusive [inhibitor, single point]",
CCOc1ccc(C(=O)CCc2nc3ccccc3s2)cc1,,inactive: -17.6%
CC(=O)N1CCC(N(Cc2ccco2)C(=O)Nc2cccc(C)c2)CC1,,inconclusive: -30.6% [inhibitor]
CCOC(=O)c1cc2c(=O)n3ccccc3nc2n(CC2CCCO2)c1=NC(=O)c1cccc(C(F)(F)F)c1 (configuration not stated),,inactive: -23.9%
COc1ccc(-c2oc3ccc(C)cc3c(=O)c2O)cc1OC,"inconclusive [inhibitor, partial curve, poor fit]",
COc1cc2nc(CN(C)Cc3ccc(SC)cc3)[nH]c(=O)c2cc1OC,,inactive: -10.3%
Cc1ccc(C(C(=O)NC(C)(C)C)N(CC2CCCO2)C(=O)Cn2nnc(-c3ccc(C)o3)n2)cc1 (configuration not stated),"inconclusive [inhibitor, single point]",
CCOC(=O)N1CCN(S(=O)(=O)N2CCCC(C(=O)NCc3cccc(OC)c3)C2)CC1 (configuration not stated),"inconclusive [inhibitor, single point]",
O=C(C(=O)N1CCN(c2ccccc2)CC1)c1ccc2c(c1)OCO2,,inactive: -5.22%
Clc1ccc(-c2ccnc(Oc3cc(Cl)ccc3Cl)n2)cc1,,inactive: -16.6%
COC(=O)c1scc(C)c1NC(=O)CSc1ccc(Cl)cc1,"inconclusive [inhibitor, single point]",
